B1: TPR 5TU (parent)
chain: GGAUCUUCUCGAUCUAACAAAAAAGACAAAUCUGCCACAAAGCUUGAGAGCAUCUUCGGAUGCAGAGGCGGCAGCCUUCGGUGGCGCGAUAGCGCCAACGUUCUCAACUAUGACACGCAAAACGCGUGCUCCGUUGAAUGGAGUUUAUCAUG

Variants at the background level are over-represented here.

The series covers variants of B1. The series can be described thus: polymerase ribozyme fitness, log enrichment relative to wild type (log ratio); higher = more active; in vitro selection for triplet polymerase activity. The method, boiled down:
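Mutant libraries were PCR-built and transcribed for each subunit of a heterodimeric triplet polymerase ribozyme and selected for one round in triplicate at −7 °C, frozen, before gel excision of extended constructs and streptavidin-bead capture. Input and output libraries were Illumina-sequenced, keeping genotypes with ≥10 input reads and ≥1 read per output. Fitness is a logarithmic ratio of genotype to wild-type enrichment, in base 2, using inverse-variance-weighted replicate averages.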
As for C5G C69A C85U C93U, the “polymerase ribozyme fitness (log ratio)” value was at most -4.2.
For C5G C87U, the “polymerase ribozyme fitness (log ratio)” value was -0.787.
For C5U C43G G68C G74A C76G C87U, the “polymerase ribozyme fitness (log ratio)” value is at most -4.2.
As for C5G A23C C72U G88U C132G U135G U148G, the “polymerase ribozyme fitness (log ratio)” value is -3.99.
As to C5G C14G C27U G84U A110G, the “polymerase ribozyme fitness (log ratio)” value is at most -4.2.
Under C5A A37U A39C G94U stands at most -4.2.
With C5G U31C A60U G83U A91C C99U C132U the figure was at most -4.2; with C5G A19C G42U C79U C105U G126U, at most -4.2; with C5G G83U A98U C105U, -1.03.
For C5G C14G G48C C57A A73C C87U C118U A121G C123U G140C, the “polymerase ribozyme fitness (log ratio)” value is at most -4.2.
Under C5G G25C A28C C57G G58A C76G G143U stands at most -4.2.
With C5A C8U C14G A37U A52G G83A U148G the figure was at most -4.2.
Under C5G G11A A73G C76U stands -2.17; under C5A C79A G88A A106C, at most -4.2.
C5A G42C: the “polymerase ribozyme fitness (log ratio)” value is -4.02.
Under C5U C76G G83U U90A G128U U135G stands at most -4.2; under C5G A20G A21G A49G U55A U127A, at most -4.2; under C5G U9C A16C A28G A30U C32G C35A G59U G92U C105U G143C, at most -4.2.
On to C5A C8G A21U C54G C57U G58A C69A G81A A115U G133C G143U, for which the “polymerase ribozyme fitness (log ratio)” value was at most -4.2.
With C5A G50A G59U G71U A73C C95A C108G the figure was at most -4.2.
Regarding C5U A26G A52U G59A A60G A97U U144A, the “polymerase ribozyme fitness (log ratio)” value was at most -4.2.
Take C5A U9A A41G C76G A91U G126A G136A: the “polymerase ribozyme fitness (log ratio)” value was at most -4.2.
With C5A C76A C85U G88U A89U G141C U144C the figure was at most -4.2; with C5G A73U G124A, -1.49; with C5G U9A A37C A64G C69A G83C C96U, at most -4.2.
For C5G G94C U101G, the “polymerase ribozyme fitness (log ratio)” value was -2.68.
With C5A A22U A40G A91C G92A C123U the figure was at most -4.2; with C5G U56A G65U G70C A107G A121U U144C, at most -4.2.
On to C5G C10U U44G G84A C129U G143C, for which the “polymerase ribozyme fitness (log ratio)” value is at most -4.2.
For C5G U53A, the “polymerase ribozyme fitness (log ratio)” value is -1.8.
Under C5G U6C A47U G50C C85U C99U G117A G136U stands at most -4.2; under C5G A12C A40U G58C G83U C118G, -3.96; under C5A C57G C72U A73U G80C C93G A110U, at most -4.2.
For C5G A41G G42A C85A A138U, the “polymerase ribozyme fitness (log ratio)” value is at most -4.2.
Under C5G U55G G83U U101C stands -2.49; under C5A C54U A91C G92U C105U G133U, at most -4.2; under C5G C54G U56A C87U C93A C132A, at most -4.2.
Regarding C5U A23U C32U G74U G83A C114U G136U C149U, the “polymerase ribozyme fitness (log ratio)” value is at most -4.2.
On to C5G C76G, for which the “polymerase ribozyme fitness (log ratio)” value was at most -4.2.
Consider C5G C14G A23C A64C A91U A147C, for which the “polymerase ribozyme fitness (log ratio)” value is at most -4.2.
With C5A U53A C54A C131A G140U the figure was at most -4.2.
On to C5A C38U C57A C108G U148G, for which the “polymerase ribozyme fitness (log ratio)” value was at most -4.2.
On to C5G A23C C43A C85A C95G A98G G100A, for which the “polymerase ribozyme fitness (log ratio)” value was at most -4.2.
For the variant C5G A12U U55G G71A C87U C95A C99U U144A, the “polymerase ribozyme fitness (log ratio)” value was at most -4.2.
With C5G U31C A49C G92A, the “polymerase ribozyme fitness (log ratio)” value was at most -4.2.
Regarding C5U A19G G88A, the “polymerase ribozyme fitness (log ratio)” value is at most -4.2.
With C5A A30U C57G C79G C85G U101G C108G A138C the figure was at most -4.2; with C5U A40U C85U C95G C132G G141A, at most -4.2; with C5A G58A A91C C103G, at most -4.2.
With C5U A19C A39G G80C C87U C105G U135A the figure was at most -4.2; with C5G C27U C32A A41U G86C, at most -4.2; with C5A A17U U45A G71C G84A A89U U104G U145G, at most -4.2.
For C5U C8A A26U U53A G58A A89G A91C C103G C149U, the “polymerase ribozyme fitness (log ratio)” value is at most -4.2.
Under C5A U13C A30C U45A A49U G58C C76A C95U G136U G141C stands at most -4.2.
C5U A28G G42A G59C G70C C72U C87U C93A G94A: the “polymerase ribozyme fitness (log ratio)” value is at most -4.2.
As to C5G G25C A28C A41C A49C U101A, the “polymerase ribozyme fitness (log ratio)” value was at most -4.2.
Under C5G C57U stands -0.358; under C5A G46C G74A U77C C93U, at most -4.2.
With C5A A20C A23U A24G G88A C96G G124U C129A the figure was at most -4.2.
For C5A G46U C79U C93U U134C, the “polymerase ribozyme fitness (log ratio)” value was at most -4.2.
As to C5G C18U A21G A40C C57A G58U G94A C99U C108U G143U, the “polymerase ribozyme fitness (log ratio)” value is at most -4.2.
Consider C5A C54U U55A C95G C96A, for which the “polymerase ribozyme fitness (log ratio)” value is -4.05.
Consider C5A A40C G74A G80C C85G G128U A138U, for which the “polymerase ribozyme fitness (log ratio)” value was at most -4.2.
Under C5G A20U C35U G50U C93U stands -3.76; under C5A A47U C76G G94C U101G, -4.01.
With C5A C51U the figure was -0.595; with C5A A52U C87A, at most -4.2.
As for C5G U6G A28U A39C C85U A107C A122C C132A, the “polymerase ribozyme fitness (log ratio)” value was at most -4.2.
Under C5A U61A U102G stands at most -4.2.
On to C5G A29G U45G G58A C99A, for which the “polymerase ribozyme fitness (log ratio)” value was at most -4.2.
In the case of C5U C10U G88A C103G A137C, the “polymerase ribozyme fitness (log ratio)” value was at most -4.2.
Turning to C5G A17U C32A G42A G62U C76U G83U C87U C118G, the “polymerase ribozyme fitness (log ratio)” value was at most -4.2.
As for C5G A37C G81A, the “polymerase ribozyme fitness (log ratio)” value is -1.37.
Under C5G A29U A52C C76G C95G C96G C108G A150G stands at most -4.2; under C5U A22C C85A, -9.25e-05.
Under C5G G46A G92C stands -4.13; under C5G G25U G86A G94C U101C A122G G126A U144C, at most -4.2; under C5G C54U G84A U127G, at most -4.2.
With C5G U7A U33G A91G C93U C118G A122G U144G the figure was at most -4.2; with C5U A49G G67U G84U U144G G152U, at most -4.2; with C5G C10G A20U A23C A40U A41C U53A G70U C87A U148A, at most -4.2.
Consider C5G A16U A29C C57A G62A G74U C95U U134G G152A, for which the “polymerase ribozyme fitness (log ratio)” value was at most -4.2.
Under C5G A19G A24C A40U U55A G83U G86U stands at most -4.2.
For the variant C5U C18G U44G U53G U55A G68A G92U C118U G143A, the “polymerase ribozyme fitness (log ratio)” value is at most -4.2.

Source of the values: the RNAGym collection of RNA variant scans (doi:10.1073/pnas.2313332121).
